Experiments:
NCI-H929 = assay: J22.9-ISY binding (FACS); set-up: species or system human; conditions: NCI-H929, flow cytometry
MM.1S Luc = assay: J22.9-ISY binding (FACS); set-up: species or system human; conditions: flow cytometry
[1] = test system: BCMA-positive NCI-H929 cells; assay: Plasma stability: cell-based cytotoxicity assay after incubation in plasma or PBS; set-up: species or system human
Method: J22.9-ISY-D265C-30.2115 (A) and J22.9-ISY-D265C-30.1699 (B) were incubated in PBS for control, or human, cynomolgus or mouse plasma for 0, 4, and 10 days at 37° C. and analysed for remaining cellular toxicity potential using BCMA-positive NCI-H929 cells.
Plasma stability of both ADC variants was confirmed in a cell-based cytotoxicity assay on BCMA-positive NCI-H929 cells (see Table 2) after incubation for 0, 4 and 10 days in PBS, human, cynomolgus or mouse plasma.

[2] = test system: NCI-H929 subcutaneous xenograft; assay: NCI-H929 subcutaneous xenograft, single dose; type: in vivo, mouse
Method: Once tumor volume reached 80 mm^3, mice (8 animals per group) were treated intravenously with single doses (2 or 4 mg/kg) of J22.9-ISY-D265C-30.2115 or J22.9-ISY-D265C-30.1699, or were treated with PBS as control.. Tumor volumes were monitored twice per week.
Antitumor activity of J22.9-ISY-D265C-30.2115 and J22.9-ISY-D265C-30.1699 was tested in a subcutaneous NCI-H929 (see Table 3 for details of cell line) mouse xenograft model.

MM.1S Luc xenograft = assay: Disseminating intravenous MM.1S Luc xenograft model, single dose; type: in vivo, mouse; conditions: single doses of 2 and 4 mg/kg
Method: (§1) When reaching a mean flux of 1.5×10^6-1×10^7 (10-14 days after implantation) 8-10 mice per group were treated with single doses (2 and 4 mg/kg) of J22.9-ISY-D265C-30.1699, J22.9-ISY-D265C-30.2115 or PBS as control. Luciferase activity was monitored by non-invasive bio-imaging twice weekly, 10 minutes after administration of luciferin (10 μl/g body weight). (B) Individual tumor growth curves for each animal are depicted. Individual Growth curves are shown for groups treated with 2 mg/kg (solid line) and 4 mg/kg (dashed line) of J22.9-ISY-D265C-30.2115.
as §1, with “doses (0.1, 0.3, 1” for “doses (2”, “and 2” for “and 4”, “of” for “of J22.9-ISY-D265C-30.1699,”, “depicted.” for “depicted. Individual”, “with 1” for “with 2”
The antitumor activity of J22.9-ISY-D265C-30.1699 and J22.9-ISY-D265C-30.2115 was further tested in a disseminating intravenous MM.1S Luc xenograft model at doses of 2 and 4 mg/kg. […]

Row | Molecule | binding property to BCMA-positive cells compared with J22.9-ISY (NCI-H929) | binding property to BCMA-positive cells compared with J22.9-ISY (MM.1S Luc) | EC50 ([1]; PBS pH 7.4, day 0, 37° C.) | EC50 ([1]; PBS pH 7.4, day 4, 37° C.) | EC50 ([1]; PBS pH 7.4, day 10, 37° C.) | EC50 ([1]; cynomolgus plasma, day 0, 37° C.) | EC50 ([1]; cynomolgus plasma, day 4, 37° C.) | EC50 ([1]; human plasma, day 0, 37° C.) | EC50 ([1]; human plasma, day 4, 37° C.) | influence of incubation on cytotoxic potential ([1]; incubation in PBS or plasma up to 10 days) | EC50 ([1]; mouse plasma, day 0, 37° C.) | EC50 ([1]; mouse plasma, day 4, 37° C.) | statistically significant body weight reduction ([2]; single doses 2 or 4 mg/kg) | initial response followed by regrowth of tumor ([2]; single treatment 2 mg/kg iv) | complete tumor remission ([2]; single treatment 4 mg/kg iv) | slight regrowth of tumor after initial response for over 90 days (MM.1S Luc xenograft)
1 | J22.9-ISY-D265C: Thiomab of J22.9-ISY with D265C (and R214K) in heavy chain, SEQ ID NO: 1 and 2 (antibody, Humanized J22.9 heavy chain J22.9-ISY-D265C; Humanized J22.9 light chain) heavy: EVQLVESGGGLVQPGGSLRLSCAASGFTFSRYWISWVRQAPGKGLVWVGEINPSSSTINYAPSLKDKFTISRDNAKNTLYLQMNSLRAEDTAVYYCASLYYDYGDAYDYWGQGTLVTVSSASTKGPSVFPLAPSSKSTSGGTAALGCLVKDYFPEPVTVSWNSGALTSGVHTFPAVLQSSGLYSLSSVVTVPSSSLGTQTYICNVNHKPSNTKVDKKV[human IgG1 Fc with D265C (EU numbers) not shown] light: EIVMTQSPATLSVSPGERATLSCKASQSVESNVAWYQQKPGQAPRALIYSASLRFSGIPARFSGSGSGTEFTLTISSLQSEDFAVYYCQQYNNYPLTFGAGTKLELKRTVAAPSVFIFPPSDEQLKSGTASVVCLLNNFYPREAKVQWKVDNALQSGNSQESVTEQDSKDSTYSLSSTLTLSKADYEKHKVYACEVTHQGLSSPVTKSFNRGEC | identical to J22.9-ISY antibody | identical to J22.9-ISY antibody | – | – | – | – | – | – | – | – | – | – | – | – | – | –
2 | J22.9-ISY-D265C-30.1699 (conjugate) heavy: EVQLVESGGGLVQPGGSLRLSCAASGFTFSRYWISWVRQAPGKGLVWVGEINPSSSTINYAPSLKDKFTISRDNAKNTLYLQMNSLRAEDTAVYYCASLYYDYGDAYDYWGQGTLVTVSSASTKGPSVFPLAPSSKSTSGGTAALGCLVKDYFPEPVTVSWNSGALTSGVHTFPAVLQSSGLYSLSSVVTVPSSSLGTQTYICNVNHKPSNTKVDKKV[human IgG1 Fc with D265C (EU numbers) not shown] light: EIVMTQSPATLSVSPGERATLSCKASQSVESNVAWYQQKPGQAPRALIYSASLRFSGIPARFSGSGSGTEFTLTISSLQSEDFAVYYCQQYNNYPLTFGAGTKLELKRTVAAPSVFIFPPSDEQLKSGTASVVCLLNNFYPREAKVQWKVDNALQSGNSQESVTEQDSKDSTYSLSSTLTLSKADYEKHKVYACEVTHQGLSSPVTKSFNRGEC | – | – | 160 pM | 360 pM | 600 pM | 200 pM | 2100 pM | 180 pM | 370000 pM | clearly reduced | 86 pM | 2000 pM | except for J22.9-ISY-D265C-30.1699 at 4 mg/kg doses | 7 of 8 | 8 of 8 | 1 of 10
